Laboratory results taken from article PMC4336329 (PLoS ONE, 2015).
In all, about 310,000 compounds went through this assay and about 14,000 (4.5%) showed an effect of 50% or more. The effect is printed as a negative number. The list shows a part of the results.

Target: human ether-à-go-go-related gene (hERG) potassium channel (human, UniProt Q12809)
Test: primary screen, population patch clamp on CHO cells stably expressing hERG
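Also: peak tail current of the secondary pulse compared with the same well before compound.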

Sequence of human ether-à-go-go-related gene (hERG) potassium channel (Q12809 whole entry, looked up): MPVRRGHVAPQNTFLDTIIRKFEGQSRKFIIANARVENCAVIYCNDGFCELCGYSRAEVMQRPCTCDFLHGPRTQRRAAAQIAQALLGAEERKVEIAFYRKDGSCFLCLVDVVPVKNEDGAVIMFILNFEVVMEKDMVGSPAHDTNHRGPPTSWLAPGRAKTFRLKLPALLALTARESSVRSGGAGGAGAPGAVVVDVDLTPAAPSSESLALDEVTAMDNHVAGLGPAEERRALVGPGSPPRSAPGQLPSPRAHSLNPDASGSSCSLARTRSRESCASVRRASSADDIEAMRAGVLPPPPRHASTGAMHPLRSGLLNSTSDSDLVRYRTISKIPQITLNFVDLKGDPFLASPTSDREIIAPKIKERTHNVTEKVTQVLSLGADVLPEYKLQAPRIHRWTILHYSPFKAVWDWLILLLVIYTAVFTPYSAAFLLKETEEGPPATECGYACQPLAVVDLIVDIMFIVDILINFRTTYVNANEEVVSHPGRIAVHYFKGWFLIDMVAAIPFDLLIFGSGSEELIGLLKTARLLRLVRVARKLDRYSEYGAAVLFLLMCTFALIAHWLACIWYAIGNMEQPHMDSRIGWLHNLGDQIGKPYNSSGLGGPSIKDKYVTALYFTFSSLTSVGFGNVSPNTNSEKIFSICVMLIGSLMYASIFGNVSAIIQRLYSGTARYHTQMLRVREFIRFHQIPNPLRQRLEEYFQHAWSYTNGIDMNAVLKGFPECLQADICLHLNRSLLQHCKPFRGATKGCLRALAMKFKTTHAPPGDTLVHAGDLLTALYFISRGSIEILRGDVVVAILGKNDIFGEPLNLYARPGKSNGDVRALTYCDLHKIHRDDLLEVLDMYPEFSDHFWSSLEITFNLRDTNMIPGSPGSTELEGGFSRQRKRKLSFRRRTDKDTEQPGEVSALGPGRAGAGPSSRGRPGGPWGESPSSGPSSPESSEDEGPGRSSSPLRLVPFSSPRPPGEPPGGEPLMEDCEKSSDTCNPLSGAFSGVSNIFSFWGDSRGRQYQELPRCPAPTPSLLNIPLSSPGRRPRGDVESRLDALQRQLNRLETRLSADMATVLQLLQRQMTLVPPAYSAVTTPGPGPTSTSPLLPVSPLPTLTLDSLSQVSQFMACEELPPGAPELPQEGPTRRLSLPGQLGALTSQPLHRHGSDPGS

SMILES | hERG current change (%, negative = inhibition) at 10uM
Cl.O=C(CN1CCCCCC1)N1c2ccccc2Sc2ccc(C(F)(F)F)cc21 | -1.87%
CCNC(=S)N(Cc1c(C)noc1C)c1ccccc1 | 0.796%
CCOc1ccccc1C1C(C(N)=O)=C(C)Nc2nc(-c3ccccc3Cl)nn21 (centres unmarked) | 0.812%
CCCCOC(=O)c1ccc(NC(=O)C(=O)CC(=O)c2ccc(OC)cc2)cc1 | 11.6%
CC(C)NC(=O)CC(=O)N/N=C/c1ccccc1F | 14.4%
CCOC(=O)C1=C(N)OC2=C(C(=O)CC(C)(C)C2)C12C(=O)Nc1ccccc12 (centres unmarked) | 24.9%
COc1ccc(CN2CCNC(=O)C2CC(=O)NC2Cc3ccccc3C2)c(OC)c1 (centres unmarked) | 16.5%
O=C(Nc1ccc(Cl)cc1)N1CCN(c2ccc3nnc(-c4ccc(F)cc4)n3n2)CC1 | -28.3%
CC1=C(C(=O)N2CCCC(N3CCN(c4ccccc4F)CC3)C2)OCCO1 (centres unmarked) | 11.5%
CCOc1ccc(NC(=O)C(=O)NCCN2CCN(S(=O)(=O)c3ccc(C)cc3)CC2)cc1 | 8.62%
CCCNc1c(NS(=O)(=O)c2cccc(C#N)c2)c(=O)oc2ccccc12 | -58.7%
CC(=O)c1ccc(OCC(=O)Nc2ccc3nc(C)sc3c2)cc1 | 7.19%
O=C(Nc1ccc(Cl)c(C(F)(F)F)c1)c1ccncc1 | 5.44%
CC[C@]12CCCN3CCc4c(n(c5ccccc45)[C@](O)(C(=O)OC)C1)[C@@H]32 | -72.4%
COC(=O)c1oc(-c2ccc(Cl)cc2)nc1C | -5.49%
COC(=O)CN1C(=O)C2(C(C#N)=C(N)Oc3n[nH]c(-c4cccs4)c32)c2ccccc21 (centres unmarked) | 1.64%
O=C(COC(=O)c1ccccc1C(=O)N1CCN(c2ccccc2)CC1)Nc1ccccc1 | -25.8%
COc1ccc(-c2csc(NC(=O)C3CC(=O)N(Cc4ccco4)C3)n2)cc1 (centres unmarked) | -70.4%
Cc1ccc(C(C(=O)NC(C)(C)C)N(Cc2ccco2)C(=O)Cn2nnc(-c3cccs3)n2)cc1 (centres unmarked) | 18.8%
CSc1ccccc1C(=O)NC1CCSc2ccccc21 (centres unmarked) | -11.2%
CC(Nc1ncnc2sccc12)c1ccccc1 (centres unmarked) | -29.8%
CC1CCCC(C)N1C(=O)COC(=O)CNC(=O)c1sc2ccccc2c1Cl (centres unmarked) | -6.03%
COc1cc(C(=O)Nc2sc3c(c2C#N)CCN(C(C)=O)C3)cc(OC)c1OC | 7.38%
